Assay results reported in publication PMC4336329 (PLoS ONE, 2015).
Screen size: about 310,000 compounds; about 14,000 (4.5%) showed an effect of 50% or more. Effects have a minus sign here. This is one part of the list.

Biological target: human ether-à-go-go-related gene (hERG) potassium channel (human, UniProt Q12809)
Experiment: primary screen, population patch clamp on CHO cells stably expressing hERG
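Note: peak tail current of the secondary pulse compared with the same well before compound.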

Sequence of human ether-à-go-go-related gene (hERG) potassium channel (Q12809 whole entry, looked up): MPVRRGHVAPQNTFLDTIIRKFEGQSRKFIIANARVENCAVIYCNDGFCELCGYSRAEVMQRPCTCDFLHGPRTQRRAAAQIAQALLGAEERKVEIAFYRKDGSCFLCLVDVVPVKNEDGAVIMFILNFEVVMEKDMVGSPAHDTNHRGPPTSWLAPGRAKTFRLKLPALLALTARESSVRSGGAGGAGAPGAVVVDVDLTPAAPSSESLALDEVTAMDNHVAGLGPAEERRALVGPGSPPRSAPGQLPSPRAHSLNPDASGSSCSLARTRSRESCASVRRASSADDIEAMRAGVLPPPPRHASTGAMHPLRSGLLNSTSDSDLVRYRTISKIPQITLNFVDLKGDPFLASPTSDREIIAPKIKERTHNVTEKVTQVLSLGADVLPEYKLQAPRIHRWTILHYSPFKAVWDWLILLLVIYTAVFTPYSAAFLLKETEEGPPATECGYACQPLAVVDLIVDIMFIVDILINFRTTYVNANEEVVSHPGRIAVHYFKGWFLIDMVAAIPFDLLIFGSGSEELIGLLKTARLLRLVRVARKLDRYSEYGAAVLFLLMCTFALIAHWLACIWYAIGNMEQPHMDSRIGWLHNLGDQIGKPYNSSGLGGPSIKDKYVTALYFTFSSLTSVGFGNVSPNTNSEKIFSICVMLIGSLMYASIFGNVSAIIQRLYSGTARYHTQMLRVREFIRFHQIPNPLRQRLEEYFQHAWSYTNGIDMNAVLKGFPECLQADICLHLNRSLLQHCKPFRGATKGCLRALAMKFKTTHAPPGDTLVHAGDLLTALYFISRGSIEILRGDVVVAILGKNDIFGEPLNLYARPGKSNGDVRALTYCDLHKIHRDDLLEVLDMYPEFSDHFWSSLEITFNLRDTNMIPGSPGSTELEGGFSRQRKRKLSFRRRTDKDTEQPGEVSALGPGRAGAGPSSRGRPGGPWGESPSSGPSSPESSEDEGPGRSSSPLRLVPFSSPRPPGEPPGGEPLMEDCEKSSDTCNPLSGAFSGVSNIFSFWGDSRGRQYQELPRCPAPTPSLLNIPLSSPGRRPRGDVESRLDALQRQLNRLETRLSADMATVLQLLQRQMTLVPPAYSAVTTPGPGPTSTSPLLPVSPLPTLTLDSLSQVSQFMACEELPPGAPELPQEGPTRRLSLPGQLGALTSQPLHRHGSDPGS

Row | Compound | hERG current change (%, negative = inhibition) at 10uM
1 | CCCCNC(=O)C1CCN(C(=O)Nc2ccc(C)cc2)CC1 | 4.75%
2 | N#Cc1cc(N)ccc1-n1cccc1 | 14.8%
3 | COc1ccc(CCC(=O)NC(C)c2ccccc2)cc1OC (centres unmarked) | 20.8%
4 | O=C(CCCN1C(=O)/C(=C/c2cccc(Br)c2)SC1=S)Nc1cccnc1 | 14.1%
5 | COCc1[nH]nc2c1C(c1ccnc3ccccc13)C(C#N)=C(N)O2 (centres unmarked) | 3.45%
6 | Cc1ccc(C(=O)NNC(=O)c2ccc(-n3cncn3)c([N+](=O)[O-])c2)cc1 | 12.2%
7 | O=C(COC(=O)c1ccc(S(=O)(=O)N2CCOCC2)cc1)NCc1cccs1 | 2.5%
8 | COc1cc(/C=N/NC(=O)c2ccncc2)ccc1OC(=O)c1ccccc1Cl | -50.8%
9 | COc1cc(/C=C2\CCCc3c2nc2ccccc2c3C(=O)O)cc(OC)c1O | 1.84%
10 | COc1ccccc1/C=C/C(=O)Nc1ccc(S(=O)(=O)Nc2cc(C)on2)cc1 | 3.53%
11 | C/C=C(\C)CN1CCC(n2nccc2NC(=O)c2ccc3c(c2)OCO3)CC1 | -26.5%
12 | Cc1ccc(CN2C(=O)C(C)Nc3ncnc(N4CCOCC4)c32)cc1.O=C(O)C(F)(F)F (centres unmarked) | 8.87%
13 | Cc1ccc(NC(=O)c2ccccc2[N+](=O)[O-])nc1 | 2.35%
14 | CC(C)(C)n1ncc2c(=O)n(CC(=O)NCc3ccccc3)cnc21 | 14%
15 | Cc1c(O[C@@H]2O[C@H](CO)[C@@H](O)[C@H](O)[C@H]2O)ccc2c1oc(=O)c1ccccc12 | 22.5%
16 | Cc1ccc(NC(=O)Nc2c(C)n(C)n(-c3ccccc3)c2=O)cc1 | 3.37%
17 | O=c1[nH]c2ccc(NC(=S)NC3CCCCC3)cc2[nH]1 | 13.7%
18 | CCO[C@H]1OC(C(=O)NC2CC2)=C[C@@H](c2ccc(Br)cc2)[C@@H]1CCCO | -10.7%
19 | C=CCNS(=O)(=O)c1ccc2c(c1)n(C)c(=O)n2C | -11.5%

Row | Compound | hERG current change (%, negative = inhibition) at 10uM
20 | COc1ccc(-c2cnnc(N/N=C/c3ccc(O)cc3)n2)cc1 | 9.11%
21 | CC(=O)NNc1cc(N2CCOCC2)nc(N2CCOCC2)n1.Cl | 19.6%
22 | C/C(=N/Oc1nc(C)cc(C)n1)c1ccccc1 | 8.93%
23 | CCOC(=O)C1CCCN(c2c(NCCc3cccc(C)c3)c(=O)c2=O)C1 (centres unmarked) | -7.78%
24 | Cc1ccc2c(c1)CC1(CN2C)C(=O)NC(=O)N(c2cccc(C)c2C)C1=O (centres unmarked) | -15.4%
25 | COc1ccc(S(=O)(=O)N2CCN(C(=O)CCC3CCCC3)CC2)cc1 | -42.7%
26 | Cc1cccc(NCN2C(=O)c3ccccc3C2=O)c1 | 9.07%
27 | COc1cc(SC)ccc1C(=O)NC(C)C | 16.3%
28 | O=C(N/N=C/c1ccc([N+](=O)[O-])s1)c1ccccc1Br | 14.6%
29 | CCOCCCNC(=O)CN1C(=O)/C(=C\c2ccc(C)cc2)Sc2ccccc21 | -29.2%
30 | O=C(CNS(=O)(=O)c1cccc2nsnc12)NCc1ccc(Cl)cc1 | -2.23%
31 | Cc1ccc(C(=O)Nc2ccccc2N2CCOCC2)cc1S(=O)(=O)N1CCOCC1 | -55.3%
32 | Cc1ccc(S(=O)(=O)CC(=O)Nc2ccc(S(=O)(=O)Nc3onc(C)c3C)cc2)cc1 | 1.99%
33 | COc1ccc2c(c1)nc(SCC(C)O)n2C (centres unmarked) | 18%
34 | O=C(COC(=O)CCc1ccc(S(=O)(=O)N2CCOCC2)cc1)Nc1ccc(Cl)cn1 | -33.4%
35 | COC(=O)C1CCN(C(=O)C2CCN(C(=O)[C@@H](NS(=O)(=O)c3ccc(C)cc3)C(C)C)CC2)CC1 | 10.4%
36 | Cc1ccc(-c2nnc(SCC(=O)Nc3ccc(N4CCOCC4)cc3)o2)cc1 | -8.4%
37 | O=C(Nc1nnc(-c2ccco2)o1)c1cccc2ccccc12 | -4.76%
38 | C/C(=N\NC(=O)c1nnn(-c2nonc2N)c1-c1cccs1)c1ccc(O)cc1 | 1.86%

Row | Compound | hERG current change (%, negative = inhibition) at 10uM
39 | Cc1ccnc(NC(=O)c2ccc3[nH]c(=O)c(=O)[nH]c3c2)c1 | 5.34%
40 | CC(C)N(c1ccccc1)c1ccc(NC(=O)C2CCCO2)cc1 (centres unmarked) | 4.07%
41 | Cc1cc(C)nc(CCNC(=O)CC2C(=O)NCCN2Cc2ccc(F)cc2Cl)n1 (centres unmarked) | 14.1%
42 | CCC1Oc2ccccc2N(CC(=O)NCCCN2CCCC2)C1=O (centres unmarked) | 15.9%
43 | COC(=O)CNC(=O)C1(C)C=CCN1C(=O)c1ccccc1 (centres unmarked) | 19.5%
44 | O=C(Cc1ccc(Cl)cc1)NC1CCS(=O)(=O)C1 (centres unmarked) | -6.2%
45 | CCOC(=O)C1=C(C)N=C2SC(C(=O)OC)=CC(=O)N2C1c1cc(OC)c(OC)c(OC)c1 (centres unmarked) | -0.0413%
46 | O=C(COc1ccccc1F)N1CCN(S(=O)(=O)/C=C/c2ccccc2)CC1 | -2.05%
47 | Nc1nc(Br)c2ccccc2c1-c1ccc(F)cc1 | -2.59%
48 | Cc1nnc(NC(=O)c2ccc(C)c(S(=O)(=O)N3CCCCCC3)c2)s1 | 18.9%
49 | O=S(=O)(c1ccc(Cl)cc1)N1CCC2(CC1)CO2 | 4.7%
50 | CCOc1ccccc1N(CC(=O)OC)S(C)(=O)=O | 12.9%
51 | CCOC(=O)c1c(-c2ccc(OC)cc2)cn2ccccc12 | 0.601%
52 | O=C(NCC1CCS(=O)(=O)C1)NCC1CCS(=O)(=O)C1 (centres unmarked) | 3.67%
53 | Cc1ccc(S(=O)(=O)c2c(C)nn(C(C)(C)C)c2OC(=O)CC(C)C)cc1 | -0.853%
54 | COc1ccc(/C=C/C(=O)Nc2ccccc2C(=O)NCC(c2ccc(OC)cc2)N(C)C)cc1 (centres unmarked) | -49.6%
55 | CCn1ccnc1C(O)c1cccc(OC)c1OC (centres unmarked) | 13.6%
56 | O=C(c1cn(CC(=O)N2CCCCC2)c2ccccc12)C1CC1 | 7.66%
